Source: the supplement of paper PMC10338343
± gives the standard deviation. The list shows a part of the results, in another mix than the full data.

Tested on: MIWI (PIWIL1) piRISC loaded with L1MC piRNA (30 nt)
Assay: pre-steady-state target cleavage rate (min^-1); MIWI and MILI are mouse PIWI proteins and EfPiwi is from a freshwater sponge; tags in brackets are library labels; higher = faster piRNA-guided slicing of the target
Conditions: guide: L1MC piRNA 5'p-UAACUAAAUACUAUGCAAGCUGUAGGUCCU
In short: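 Cleave-'n-Seq: a transcribed, DNA-blocked target RNA library (0.1 nM) was mixed with 1 nM active affinity-purified piRISC carrying one synthetic guide, with or without 500 nM GTSF1 partner protein, in HEPES–potassium acetate buffer at 33 °C for 0–8 or 0–960 min. Uncleaved targets were sequenced and normalised to depth and to weakly complementary targets. Three trials were pooled, and k3 was capped at 0.0001 min^-1. The pre-steady-state cleavage rate came from a burst-and-steady-state fit.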

[1] = auxiliary factor: 500 nM mouse GTSF1
[2] = auxiliary factor: none (no GTSF1)

Sequence	pre-steady-state target cleavage rate [1]	pre-steady-state target cleavage rate [2]
UCCUGGAACAGCAUGGAUAGUAUUUAGUUA	1.18 ± 0.06	0.0192 ± 0.0045
UCGACCUACAGCUUGGAUAGUAUUUUGUUA	0.968 ± 0.064	0.044 ± 0.0084
UCCUGGAUCACCUUGCAUAGUAUAUAGUUA	0.166 ± 0.029	0.00611 ± 0.0029
UCCUGGAUAAGCUUGCAUAGUAUUUAGUUA	1.07 ± 0.049	0.0705 ± 0.015
UCGUGCUACAGCUUGCAUAGUAUUUACAAA	0.326 ± 0.042	0.00286 ± 0.0028
UCCACCUAGAGCUUGCAUAGUAUUUAGAUA	0.178 ± 0.032	0.00955 ± 0.0025
UCGACCUACAGCUUGCAUAGUUUUUAGUUA	0.464 ± 0.021	0.0323 ± 0.0086
AGGACGCUACAGCUUGCAUAGUAUUUAGUUA	1.05 ± 0.08	0.0749 ± 0.014
UCGACCUUCACCUUGCAUAGUAUUUAGUUA	0.909 ± 0.045	0.0488 ± 0.0074
UCGACCUACAGGAAGCAUAGUAUUUAGUUA	0.942 ± 0.061	0.00693 ± 0.0018
UCCACCUACAGCUUGGAUUGUAUUUAGUUA	0.417 ± 0.018	0.0124 ± 0.0027
UCCAGCUACAGCUUGCAUAGUAUAUAGUUA	0.319 ± 0.039	0.0155 ± 0.0019
UCCUCCUGACAGCUUGCAUAGUAUUUAGUUA	0.756 ± 0.029	0.0588 ± 0.01
UCCUGGUACAGCUUGCAUAGAAUUUUGUUA	0.131 ± 0.033	0.00447 ± 0.0042
UCCACCUACAGCUUGCAUACUAUUUUGUUA	0.158 ± 0.019	0.0123 ± 0.002
UCGACCUACAGCUUGCAGAGUAUUUAGUUA	1.05 ± 0.066	0.0315 ± 0.0073
UCCACCUACAGCUUGCAUUGUUUUUAGUUA	0.0873 ± 0.011	0.00736 ± 0.0018
UCCACCUAGAGCUAGCAUAGUAUUUAGUUA	0.339 ± 0.042	0.0098 ± 0.0019
UCCUGGAUCAGUUGCAUAGUAUUUAGUUA	0.257 ± 0.036	0.00383 ± 0.0022
UGGACGUACAGCUUGCAUAGAAUUUAGUUA	0.341 ± 0.019	0.0267 ± 0.0072
